According to the supplement of paper PMC8728848:
The other results are listed elsewhere or left out.

Key:
Assay in all cases: glycan array binding signal (z-score within array); higher = stronger binding
Conditions in all cases: glycan notation: IUPAC condensed, linker removed
Fuc(a1-2)Gal = target: Fuc(a1-2)Gal
In short: (§1)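 The binding signal is a Z-score computed within each array and averaged over linkers. Arrays of the same protein sequence at different concentrations or buffers were also averaged together. Data originate from 3228 arrays in the Consortium for Functional Glycomics database, kept only where the protein sequence was available.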

Fuc(a1-2)Gal(b1-3)GalNAc = target: Fuc(a1-2)Gal(b1-3)GalNAc
In short: as §1

[1] = target: Fuc(a1-2)Gal(b1-3)GalNAc(b1-3)Gal
In short: as §1

[2] = target: Fuc(a1-2)Gal(b1-3)GalNAc(b1-3)Gal(a1-4)Gal(b1-4)Glc
In short: as §1

[3] = target: Fuc(a1-2)Gal(b1-3)GalNAc(b1-4)[Neu5Ac(a2-3)]Gal(b1-4)Glc
In short: as §1

Fuc(a1-2)Gal(b1-3)GlcNAc = target: Fuc(a1-2)Gal(b1-3)GlcNAc
In short: as §1

[4] = target: Fuc(a1-2)Gal(b1-3)GlcNAc(b1-3)Gal(b1-4)Glc
In short: as §1

[5] = target: Fuc(a1-2)Gal(b1-3)[Fuc(a1-4)]GlcNAc
In short: as §1

Fuc(a1-2)Gal(b1-4)Glc = target: Fuc(a1-2)Gal(b1-4)Glc
In short: as §1

Fuc(a1-2)Gal(b1-4)Glc6S = target: Fuc(a1-2)Gal(b1-4)Glc6S
In short: as §1

Fuc(a1-2)Gal(b1-4)GlcNAc = target: Fuc(a1-2)Gal(b1-4)GlcNAc
In short: as §1

[6] = target: Fuc(a1-2)Gal(b1-4)GlcNAc(b1-3)Gal(b1-4)GlcNAc
In short: as §1

[7] = target: Fuc(a1-2)Gal(b1-4)GlcNAc(b1-3)Gal(b1-4)GlcNAc(b1-3)Gal(b1-4)GlcNAc
In short: as §1

[8] = target: Fuc(a1-2)Gal(b1-4)GlcNAc6S
In short: as §1

[9] = target: Fuc(a1-2)Gal(b1-4)[Fuc(a1-3)]GlcNAc
In short: as §1

[10] = target: Fuc(a1-2)Gal(b1-4)[Fuc(a1-3)]GlcNAc(b1-3)Gal(b1-4)[Fuc(a1-3)]GlcNAc
In short: as §1

[11] = target: Fuc(a1-2)Gal(b1-4)[Fuc(a1-3)]GlcNAc(b1-3)Gal(b1-4)[Fuc(a1-3)]GlcNAc(b1-3)Gal(b1-4)[Fuc(a1-3)]GlcNAc
In short: as §1

Fuc(a1-2)Gal6S(b1-4)Glc = target: Fuc(a1-2)Gal6S(b1-4)Glc
In short: as §1

[12] = target: Fuc(a1-2)Gal6S(b1-4)Glc6S
In short: as §1

[13] = target: Fuc(a1-2)Gal6S(b1-4)GlcNAc
In short: as §1

Fuc(a1-2)[Gal(a1-3)]Gal = target: Fuc(a1-2)[Gal(a1-3)]Gal
In short: as §1

[14] = target: Fuc(a1-2)[Gal(a1-3)]Gal(b1-3)GlcNAc
In short: as §1

[15] = target: Fuc(a1-2)[Gal(a1-3)]Gal(b1-4)Glc
In short: as §1

[16] = target: Fuc(a1-2)[Gal(a1-3)]Gal(b1-4)GlcNAc
In short: as §1

[17] = target: Fuc(a1-2)[Gal(a1-3)]Gal(b1-4)[Fuc(a1-3)]GlcNAc
In short: as §1

[18] = target: Fuc(a1-2)[Gal(a1-4)]Gal(b1-4)GlcNAc
In short: as §1

[19] = target: Fuc(a1-2)[GalNAc(a1-3)]Gal
In short: as §1

[20] = target: Fuc(a1-2)[GalNAc(a1-3)]Gal(b1-3)GlcNAc
In short: as §1

[21] = target: Fuc(a1-2)[GalNAc(a1-3)]Gal(b1-4)Glc
In short: as §1

[22] = target: Fuc(a1-2)[GalNAc(a1-3)]Gal(b1-4)GlcNAc
In short: as §1

[23] = target: Fuc(a1-2)[GalNAc(a1-3)]Gal(b1-4)[Fuc(a1-3)]GlcNAc
In short: as §1

[24] = target: Fuc(a1-2)[GalNAc(a1-4)]Gal(b1-4)GlcNAc
In short: as §1

[25] = target: Fuc(a1-2)[GalNAc(b1-3)]Gal
In short: as §1

Fuc(a1-3)GlcNAc = target: Fuc(a1-3)GlcNAc
In short: as §1

[26] = target: Fuc(a1-3)[Gal(b1-4)]Glc6S
In short: as §1

[27] = target: Fuc(a1-3)[Gal(b1-4)]GlcNAc
In short: as §1

[28] = target: Fuc(a1-3)[Gal(b1-4)]GlcNAc(b1-2)Man(a1-3)[Fuc(a1-3)[Gal(b1-4)]GlcNAc(b1-2)Man(a1-6)]Man(b1-4)GlcNAc(b1-4)GlcNAc
In short: as §1

B1: GH98CBM (Clostridium perfringens) (protein)
chain: EVYALEESRDVYLSDLDWLNATHGDDTKSKIVQKNHPFTPGNNNQSTKISLKMEDGSISEFEKGLGTIAGSPSTITYDISGAGVTKFFSYLGIDRSANPINEQYAKVDKIEVVVDGKVIYSTINQFPNGLTYETPAIKVDLNIPENAKRLQLKSYAGEKTWGDEVVYADAKFTAKGDFVN
glycan array binding signal (z-score) (Fuc(a1-2)Gal): -0.247
glycan array binding signal (z-score) (Fuc(a1-2)Gal(b1-3)GalNAc): -0.079
glycan array binding signal (z-score) [1]: -0.124
glycan array binding signal (z-score) [2]: -0.037
glycan array binding signal (z-score) [3]: -0.066
glycan array binding signal (z-score) (Fuc(a1-2)Gal(b1-3)GlcNAc): -0.219
glycan array binding signal (z-score) [4]: -0.272
glycan array binding signal (z-score) [5]: -0.254
glycan array binding signal (z-score) (Fuc(a1-2)Gal(b1-4)Glc): -0.178
glycan array binding signal (z-score) (Fuc(a1-2)Gal(b1-4)Glc6S): -0.221
glycan array binding signal (z-score) (Fuc(a1-2)Gal(b1-4)GlcNAc): -0.2
glycan array binding signal (z-score) [6]: -0.248
glycan array binding signal (z-score) [7]: -0.125
glycan array binding signal (z-score) [8]: -0.178
glycan array binding signal (z-score) [9]: -0.156
glycan array binding signal (z-score) [10]: -0.186
glycan array binding signal (z-score) [11]: -0.098
glycan array binding signal (z-score) (Fuc(a1-2)Gal6S(b1-4)Glc): -0.254
glycan array binding signal (z-score) [12]: -0.229
glycan array binding signal (z-score) [13]: -0.208
glycan array binding signal (z-score) (Fuc(a1-2)[Gal(a1-3)]Gal): 1.3
glycan array binding signal (z-score) [14]: -0.05
glycan array binding signal (z-score) [15]: 2.19
glycan array binding signal (z-score) [16]: 2.11
glycan array binding signal (z-score) [17]: 1.18
glycan array binding signal (z-score) [18]: -0.007
glycan array binding signal (z-score) [19]: 4.81
glycan array binding signal (z-score) [20]: 0.125
glycan array binding signal (z-score) [21]: 6.66
glycan array binding signal (z-score) [22]: 8.52
glycan array binding signal (z-score) [23]: 5.47
glycan array binding signal (z-score) [24]: -0.209
glycan array binding signal (z-score) [25]: -0.204
glycan array binding signal (z-score) (Fuc(a1-3)GlcNAc): -0.309
glycan array binding signal (z-score) [26]: -0.141
glycan array binding signal (z-score) [27]: -0.196
glycan array binding signal (z-score) [28]: 0.041
